Results taken from paper PMC5892938.
This is one part of the list. At the low end of the ranking, values are background and their order means little.
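Note: DESeq read counts versus GST-SBP nonspecific binding control pulldown.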

These sequences were tested against GST-SBP-SLBP (stem-loop binding protein) (UniProt Q14493) (assay: targeted RNA Bind-n-Seq). Details: RBNS binding buffer: 25 mM Tris pH 7.5, 150 mM KCl, 3 mM MgCl2, 0.1% Tween, 0.5 mg/mL BSA, 1 mM DTT; 27 nM protein, 750 pM RNA pool; temperature not stated; high values mean tight binding.
In the case of “GGUCACGUCUCAAUCAACUCAUUCUCCAGGGAAAUCCCUGGCAAACUCAACAGCUCGCAGUCAAG”, the binding signal (log2 fold change) is reported as -0.271. “GGUCACGUCUCAAUCAACUCAAUCCCAGGAGUUUCCUCCUGUAAAUUCAACAGCUCGCAGUCAAG” gave a binding signal (log2 fold change) of -0.0982. “GGUCACGUCUCAAUCAACUCUUCUCCAGGAGUUUCCUCCUGUUAUCUCAACAGCUCGCAGUCAAG” showed a binding signal (log2 fold change) of -0.105. In the case of “GGUCACGUCUCAAUCAACUCAAUUCCCAGGGAAAACCCUGGCAUACUCAACAGCUCGCAGUCAAG”, the binding signal (log2 fold change) is reported as 0.0832. With “GGUCACGUCUCAAUCAACUCUACUUCAGGAGUUUACUCCUGUUUUUUCAACAGCUCGCAGUCAAG” the binding signal (log2 fold change) was -0.283. “GGUCACGUCUCAAUCAACUCCUAAGAGGGGGGGAAAACCCCUUUGCCCUCAAAAUCAACAGCUCGCAGUCAAG” was tested, and the binding signal (log2 fold change) was -0.5. For “GGUCACGUCUCAAUCAACUCAGUCUCAGGAGUUUACUCCUGCAAUCUCAACAGCUCGCAGUCAAG”, the binding signal (log2 fold change) was -0.0856. Sequence “GGUCACGUCUCAAUCAACUCAUCUCCCAGGGAAAUCCCUGGCUAUCUCAACAGCUCGCAGUCAAG” has a binding signal (log2 fold change) of 0.114. “GGUCACGUCUCAAUCAACUCAAUCUCAGGAGUUUACUCCUGCAAUUUCAACAGCUCGCAGUCAAG” showed a binding signal (log2 fold change) of -0.00556. For “GGUCACGUCUCAAUCAACUCUAGUCCAGGAGUUUUCUCCUGCAAUUUCAACAGCUCGCAGUCAAG”, the binding signal (log2 fold change) was 0.0136. For “GGUCACGUCUCAAUCAACUCUUUAGAGGGGGGGAAAACCCCUUUGCCCUCGUAUUCAACAGCUCGCAGUCAAG”, the binding signal (log2 fold change) was -0.736. With “GGUCACGUCUCAAUCAACUCUUCCCCCAGGGAAAGCCCUGGCAAACUCAACAGCUCGCAGUCAAG” the binding signal (log2 fold change) was -0.262. Sequence “GGUCACGUCUCAAUCAACUCAUAAGAGGGGGGGAAAACCCCUUUGCCCUCAAUUUCAACAGCUCGCAGUCAAG” has a binding signal (log2 fold change) of -0.424. “GGUCACGUCUCAAUCAACUCACAAGAGGGGGGGAAAACCCCUUUACCCUCGAAUUCAACAGCUCGCAGUCAAG” gave a binding signal (log2 fold change) of -0.471. In the case of “GGUCACGUCUCAAUCAACUCAGUUCCAGGAGUUUACUCCUGCAUUCUCAACAGCUCGCAGUCAAG”, the binding signal (log2 fold change) is reported as 0.254. Sequence “GGUCACGUCUCAAUCAACUCAAUCCCAGGAGUUUACUCCUGUAAUCUCAACAGCUCGCAGUCAAG” has a binding signal (log2 fold change) of 0.159. “GGUCACGUCUCAAUCAACUCAACUUCAGGAGUUUCCUCCUGCUUAUUCAACAGCUCGCAGUCAAG” gave a binding signal (log2 fold change) of 0.0602. With “GGUCACGUCUCAAUCAACUCUACUUCAGGAGUUUACUCCUGCUUACUCAACAGCUCGCAGUCAAG” the binding signal (log2 fold change) was -0.0627. “GGUCACGUCUCAAUCAACUCAACUCCAGGAGUUUGCUCCUGCAUUUUCAACAGCUCGCAGUCAAG” gave a binding signal (log2 fold change) of 0.187. Sequence “GGUCACGUCUCAAUCAACUCAUCCCCCAGGGAAACCCCUGGUUAUCUCAACAGCUCGCAGUCAAG” has a binding signal (log2 fold change) of 0.0283. In the case of “GGUCACGUCUCAAUCAACUCAUCGCCAGGAGUUUUCUCCUGCAUUUUCAACAGCUCGCAGUCAAG”, the binding signal (log2 fold change) is reported as -0.0451. “GGUCACGUCUCAAUCAACUCAAUCCCAGGAGUUUGCUCCUGCUUUUUCAACAGCUCGCAGUCAAG” gave a binding signal (log2 fold change) of -0.178. In the case of “GGUCACGUCUCAAUCAACUCCUUCGAGGGGGGGAAAACCCCUUUACCCUCUCAUUCAACAGCUCGCAGUCAAG”, the binding signal (log2 fold change) is reported as -0.294. “GGUCACGUCUCAAUCAACUCUUUCGCAGGAGUUUCCUCCUGGUAUUUCAACAGCUCGCAGUCAAG” showed a binding signal (log2 fold change) of 0.117. In the case of “GGUCACGUCUCAAUCAACUCAUUCUCCAGGGAAAUCCCUGGCAAAUUCAACAGCUCGCAGUCAAG”, the binding signal (log2 fold change) is reported as -0.149. “GGUCACGUCUCAAUCAACUCAUCCCCAGGAGUUUGCUCCUGCUUAUUCAACAGCUCGCAGUCAAG” was tested, and the binding signal (log2 fold change) was -0.00931. “GGUCACGUCUCAAUCAACUCAUUCUCAGGAGUUUCCUCCUGUAAUUUCAACAGCUCGCAGUCAAG” gave a binding signal (log2 fold change) of 0.174. “GGUCACGUCUCAAUCAACUCAACUUCAGGAGUUUUCUCCUGCUUUUUCAACAGCUCGCAGUCAAG” gave a binding signal (log2 fold change) of 0.0958. “GGUCACGUCUCAAUCAACUCUAUCUCAGGAGUUUUCUCCUGUUUAUUCAACAGCUCGCAGUCAAG” gave a binding signal (log2 fold change) of 0.0833. “GGUCACGUCUCAAUCAACUCUUCUUCAGGAGUUUCCUCCUGCAUAUUCAACAGCUCGCAGUCAAG” gave a binding signal (log2 fold change) of 0.0796. “GGUCACGUCUCAAUCAACUCUUUCUCAGGAGUUUUCUCCUGCUUUUUCAACAGCUCGCAGUCAAG” showed a binding signal (log2 fold change) of -0.0995. In the case of “GGUCACGUCUCAAUCAACUCAACUCCCAGGGAAACCCCUGGUUAAUUCAACAGCUCGCAGUCAAG”, the binding signal (log2 fold change) is reported as 0.0188. In the case of “GGUCACGUCUCAAUCAACUCUUUCCCCAGGGAAAUCCCUGGCUAUCUCAACAGCUCGCAGUCAAG”, the binding signal (log2 fold change) is reported as 0.154. “GGUCACGUCUCAAUCAACUCAGUCUCAGGAGUUUGCUCCUGCUUUUUCAACAGCUCGCAGUCAAG” was tested, and the binding signal (log2 fold change) was 0.00409. Work on “GGUCACGUCUCAAUCAACUCAGAAGAGGGGGGGAAAACCCCUUUACCCUCAUAAUCAACAGCUCGCAGUCAAG” yielded a binding signal (log2 fold change) of -0.233. “GGUCACGUCUCAAUCAACUCUUCGCCAGGAGUUUCCUCCUGUAAUCUCAACAGCUCGCAGUCAAG” showed a binding signal (log2 fold change) of 0.143. “GGUCACGUCUCAAUCAACUCUACUUCCAGGGAAAACCCUGGCUUUCUCAACAGCUCGCAGUCAAG” showed a binding signal (log2 fold change) of -0.16. With “GGUCACGUCUCAAUCAACUCAUCAGAGGGGGGGAAAACCCCUUUACCCUCAUUCUCAACAGCUCGCAGUCAAG” the binding signal (log2 fold change) was -0.205. Work on “GGUCACGUCUCAAUCAACUCAAACGAGGGGGGGAAAACCCCUUUACCCUCUAUAUCAACAGCUCGCAGUCAAG” yielded a binding signal (log2 fold change) of -0.304. “GGUCACGUCUCAAUCAACUCUACUUCAGGAGUUUUCUCCUGUAAAUUCAACAGCUCGCAGUCAAG” gave a binding signal (log2 fold change) of 0.0808. Sequence “GGUCACGUCUCAAUCAACUCAUUUCCAGGAGUUUUCUCCUGCAAACUCAACAGCUCGCAGUCAAG” has a binding signal (log2 fold change) of 0.00373. “GGUCACGUCUCAAUCAACUCAACUUCCAGGGAAAUCCCUGGCAAAUUCAACAGCUCGCAGUCAAG” gave a binding signal (log2 fold change) of -0.0546. In the case of “GGUCACGUCUCAAUCAACUCAAAAGAGGGGGGGAAAACCCCUUUACCCUCGUCCUCAACAGCUCGCAGUCAAG”, the binding signal (log2 fold change) is reported as 0.168. “GGUCACGUCUCAAUCAACUCUCAAGAGGGGGGGAAAACCCCUUUGCCCUCACUUUCAACAGCUCGCAGUCAAG” gave a binding signal (log2 fold change) of 0.453. For “GGUCACGUCUCAAUCAACUCAAUCUCCAGGGAAAUCCCUGGCUAUGUCAACAGCUCGCAGUCAAG”, the binding signal (log2 fold change) was 0.0201. “GGUCACGUCUCAAUCAACUCAAUCUCAGGAGUUUUCUCCUGUAUACUCAACAGCUCGCAGUCAAG” showed a binding signal (log2 fold change) of 0.429. In the case of “GGUCACGUCUCAAUCAACUCUAUCCCAGGAGUUUUCUCCUGUUUAUUCAACAGCUCGCAGUCAAG”, the binding signal (log2 fold change) is reported as 0.214.
